# Assay results: the supplement of paper PMC4967469
# By IC50 is meant the dose at which the fit gives 50% viability; a fit beyond the top or the lowest dose is shown as a bound at that dose. The AUC spans the tested range (256-fold, ending at the top dose) of the same fit; it is 1 without any effect and falls as sensitivity rises. For some of these results: An inferred top dose was calculated from the reported fits.
# Columns and labels:
# Assay in all cases: Viability of human cancer cell lines after 72 h of drug (GDSC screen)
# [1] = compound: COC1=CC(c2cc3ccccc3[nH]2)=N/C1=C\c1[nH]c(C)cc1C [Obatoclax mesylate]; conditions: top dose 16 µM
# Description: (§1)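 Human cancer cell lines in 384-well plates, medium with 10% serum, drug for 72 h over a 256-fold dose range (nine 2-fold or five 4-fold steps up to the top dose). Adherent lines were fixed and stained with the nucleic acid dye Syto60, suspension lines read with resazurin; signal relative to control wells, capped at 0 and 100%. One two-parameter sigmoid per drug and line, fitted in a mixed model over all curves with the slope shared within a line.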
# [2] = compound: COCC(=O)NC/C=C/c1ccc2ncnc(Nc3ccc(Oc4ccc(C)nc4)c(C)c3)c2c1 [CP724714]; conditions: top dose 10.24 µM; top dose inferred
# Description: as §1
# [3] = compound: Cc1cccc(Nc2nc(-c3ccncc3)cs2)c1 [STF-62247]; conditions: top dose 10.24 µM; top dose inferred
# Description: as §1
# [4] = compound: Cc1cnc(CNC(=O)c2c(=O)c3ccc(N4CCCN(C)CC4)nc3n3c2sc2ccccc23)cn1 [CX-5461]; conditions: top dose 10.24 µM; top dose inferred
# Description: as §1
Cell Line,AUC [1],IC50 [1],AUC [2],IC50 [2],AUC [3],IC50 [3],AUC [4],IC50 [4]
"HPAC (pancreas, adherent)",0.559,1.54 µM,0.978,> 10.2 µM,0.976,> 10.2 µM,0.744,4.37 µM
"HPAF-II (pancreas, adherent)",0.603,2.09 µM,0.978,> 10.2 µM,0.978,> 10.2 µM,0.931,> 10.2 µM
"HSC-2 (head and neck, adherent)",0.067,< 0.0625 µM,0.982,> 10.2 µM,0.989,> 10.2 µM,0.989,> 10.2 µM
"HSC-3 (head and neck, adherent)",0.037,< 0.0625 µM,0.989,> 10.2 µM,0.99,> 10.2 µM,0.99,> 10.2 µM
"HSC-4 (head and neck, adherent)",0.453,0.713 µM,0.966,> 10.2 µM,0.979,> 10.2 µM,0.976,> 10.2 µM
"HT55 (large intestine, adherent)",0.677,3.12 µM,0.99,> 10.2 µM,0.99,> 10.2 µM,0.99,> 10.2 µM
"HT-3 (cervix, adherent)",0.523,1.15 µM,0.97,> 10.2 µM,0.977,> 10.2 µM,0.966,> 10.2 µM
"HT-29 (large intestine, adherent)",0.109,< 0.0625 µM,0.974,> 10.2 µM,0.946,> 10.2 µM,0.949,> 10.2 µM
"HT-115 (large intestine, adherent)",0.902,> 16 µM,0.946,> 10.2 µM,0.989,> 10.2 µM,0.991,> 10.2 µM
"HT-1080 (fibrosarcoma, adherent)",0.391,0.519 µM,0.989,> 10.2 µM,0.979,> 10.2 µM,0.963,> 10.2 µM
"HT-1197 (bladder, adherent)",0.364,0.391 µM,0.977,> 10.2 µM,0.985,> 10.2 µM,0.982,> 10.2 µM
"HT-1376 (bladder, adherent)",0.233,0.143 µM,0.984,> 10.2 µM,0.985,> 10.2 µM,0.985,> 10.2 µM
"HTC-C3 (thyroid, adherent)",0.174,0.0888 µM,0.954,> 10.2 µM,0.983,> 10.2 µM,0.945,> 10.2 µM
"HeLa (cervix, adherent)",0.403,0.55 µM,0.979,> 10.2 µM,0.985,> 10.2 µM,0.964,> 10.2 µM
"Hep 3B2_1-7 (liver, adherent)",0.034,< 0.0625 µM,0.971,> 10.2 µM,0.981,> 10.2 µM,0.986,> 10.2 µM
"Hs633T (fibrosarcoma, adherent)",0.212,0.176 µM,0.991,> 10.2 µM,0.985,> 10.2 µM,0.754,2.9 µM

Cell Line,AUC [1],IC50 [1],AUC [2],IC50 [2],AUC [3],IC50 [3],AUC [4],IC50 [4]
"Hs683 (glioma, adherent)",0.27,0.22 µM,0.982,> 10.2 µM,0.979,> 10.2 µM,0.952,> 10.2 µM
"Hs766T (pancreas, adherent)",0.371,0.393 µM,0.983,> 10.2 µM,0.984,> 10.2 µM,0.984,> 10.2 µM
"Hs939-T (melanoma, adherent)",0.29,0.24 µM,0.986,> 10.2 µM,0.97,> 10.2 µM,0.986,> 10.2 µM
"Hs940-T (melanoma, adherent)",0.109,< 0.0625 µM,0.972,> 10.2 µM,0.983,> 10.2 µM,0.984,> 10.2 µM
"Hs-578-T (breast, adherent)",0.325,0.314 µM,0.987,> 10.2 µM,0.987,> 10.2 µM,0.987,> 10.2 µM
"HuCCT1 (biliary tract, adherent)",0.198,0.112 µM,0.972,> 10.2 µM,0.964,> 10.2 µM,0.726,3.06 µM
"HuH-7 (liver, adherent)",0.29,0.256 µM,0.975,> 10.2 µM,0.976,> 10.2 µM,0.987,> 10.2 µM
"HuO9 (osteosarcoma, adherent)",0.673,3.22 µM,0.984,> 10.2 µM,0.983,> 10.2 µM,0.983,> 10.2 µM
"HuO-3N1 (osteosarcoma, adherent)",0.419,0.56 µM,0.982,> 10.2 µM,0.981,> 10.2 µM,0.963,> 10.2 µM
"HuP-T3 (pancreas, adherent)",0.434,0.632 µM,0.969,> 10.2 µM,0.975,> 10.2 µM,0.886,> 10.2 µM
"HuP-T4 (pancreas, adherent)",0.106,< 0.0625 µM,0.979,> 10.2 µM,0.932,> 10.2 µM,0.701,2.44 µM
"IGR-1 (melanoma, adherent)",0.03,< 0.0625 µM,0.99,> 10.2 µM,0.97,> 10.2 µM,0.708,2.26 µM
"IGR-37 (melanoma, adherent)",0.241,0.195 µM,0.989,> 10.2 µM,0.953,> 10.2 µM,0.879,8.92 µM
"IHH-4 (thyroid, semi-adherent)",0.19,0.155 µM,0.987,> 10.2 µM,0.992,> 10.2 µM,0.845,5.3 µM
"IM-95 (stomach, adherent)",0.24,0.167 µM,0.95,> 10.2 µM,0.985,> 10.2 µM,0.96,> 10.2 µM
"IPC-298 (melanoma, adherent)",0.197,0.129 µM,0.982,> 10.2 µM,0.983,> 10.2 µM,0.806,5.09 µM
